Experimental data: publication PMC4336329 (PLoS ONE, 2015)
Among all 310,000 compounds or so, about 14,000 (4.5%) showed an effect of 50% or more. The effect is printed as a negative number. Some of the results follow.

Target: human ether-à-go-go-related gene (hERG) potassium channel (human, UniProt Q12809)
Assay: primary screen, population patch clamp on CHO cells stably expressing hERG
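Further: peak tail current of the secondary pulse compared with the same well before compound.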

Sequence of human ether-à-go-go-related gene (hERG) potassium channel (Q12809 whole entry, looked up): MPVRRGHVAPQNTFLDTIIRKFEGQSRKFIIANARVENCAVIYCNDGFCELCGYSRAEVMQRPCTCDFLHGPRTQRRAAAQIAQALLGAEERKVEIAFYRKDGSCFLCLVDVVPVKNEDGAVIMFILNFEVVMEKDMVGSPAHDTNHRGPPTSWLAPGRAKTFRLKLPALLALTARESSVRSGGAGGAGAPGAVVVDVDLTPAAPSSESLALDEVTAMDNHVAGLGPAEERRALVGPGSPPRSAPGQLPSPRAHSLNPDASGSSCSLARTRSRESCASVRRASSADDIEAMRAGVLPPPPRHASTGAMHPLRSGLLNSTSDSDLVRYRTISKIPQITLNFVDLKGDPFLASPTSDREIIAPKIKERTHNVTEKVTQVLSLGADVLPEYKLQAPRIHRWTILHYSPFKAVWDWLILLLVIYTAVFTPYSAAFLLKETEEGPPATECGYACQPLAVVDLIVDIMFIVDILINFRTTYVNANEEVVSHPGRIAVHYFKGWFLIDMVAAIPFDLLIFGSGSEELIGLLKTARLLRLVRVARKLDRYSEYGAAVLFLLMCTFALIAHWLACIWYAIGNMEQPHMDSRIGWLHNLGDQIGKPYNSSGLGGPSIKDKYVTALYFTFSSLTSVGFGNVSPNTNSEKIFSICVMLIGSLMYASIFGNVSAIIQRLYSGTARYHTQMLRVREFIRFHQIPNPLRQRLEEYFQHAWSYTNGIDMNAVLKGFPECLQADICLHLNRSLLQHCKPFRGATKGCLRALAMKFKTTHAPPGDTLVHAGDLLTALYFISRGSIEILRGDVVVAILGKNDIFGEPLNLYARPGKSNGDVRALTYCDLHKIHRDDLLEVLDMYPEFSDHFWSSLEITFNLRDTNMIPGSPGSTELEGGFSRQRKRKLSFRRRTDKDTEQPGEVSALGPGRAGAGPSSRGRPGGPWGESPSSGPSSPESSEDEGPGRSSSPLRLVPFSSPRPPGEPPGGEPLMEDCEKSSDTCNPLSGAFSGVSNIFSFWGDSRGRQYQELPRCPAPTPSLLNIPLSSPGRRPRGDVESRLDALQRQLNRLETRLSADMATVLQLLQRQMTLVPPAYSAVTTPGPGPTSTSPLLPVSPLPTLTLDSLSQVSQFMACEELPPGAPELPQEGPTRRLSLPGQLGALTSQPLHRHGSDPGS

In order of rising “hERG current change (%, negative = inhibition) at 10uM” value:
1. N=c1c(C(=O)NCC2CCCO2)cc2c(=O)n3ccccc3nc2n1Cc1ccccc1Cl (centres unmarked)  -67.9%
2. CCN1CCN(c2ncc(C(=O)Nc3c(F)cc(F)cc3Br)c3ccccc23)CC1  -60%
3. COc1ccc(C(=O)Nc2nc3ccccc3[nH]2)cc1S(=O)(=O)N1CCCC1  -52.8%
4. CCN(CC(=O)NCc1cccs1)C(=O)c1cc(S(=O)(=O)N2CCCCC2)ccc1Cl  -40.2%
5. CC(C)(C)c1ccccc1OCCCCCn1ccnc1  -37.7%
6. CC(=O)c1ccc(N2CCN(C(=O)c3n[nH]c4ccccc34)CC2)cc1  -34.3%
7. CC(C)(CNC(=O)c1cc2c(s1)CCCC2)N1CCOCC1  -30.4%
8. CN(C)CCNC(=O)Cn1ccc2cc(S(=O)(=O)N3CCCCCC3)ccc21  -25.4%
9. CC(C)(C)c1ccc(C(=O)NC(=S)NCc2cccnc2)cc1  -22.9%
10. CCOc1ccc(S(=O)(=O)N2CCOCC2)cc1NC(=O)CSCC(=O)Nc1ccc(C)cc1  -18.2%
11. COc1cc(/C=N/NC(=O)c2cccc(S(=O)(=O)N3CCCCC3)c2)cc(Br)c1O  -18%
12. COc1ccc(C2=C(SC)CC2=NC(C)(C)C)cc1  -16.8%
13. CC(C)Oc1cccc(C(=O)C2CCCN(C(=O)c3ccoc3)C2)c1 (centres unmarked)  -14.7%
14. COc1ccc(C(CNC(=O)C2CC(=O)N(Cc3ccccc3)C2)N2CCOCC2)cc1 (centres unmarked)  -14.3%
15. O=C(c1cc(Cl)nc2ccccc12)N1CCN(S(=O)(=O)c2cccc(C(F)(F)F)c2)CC1  -12.1%
16. CCOC(=O)c1c(C)c(C(=O)NCCCOC)c(C)n1C  -11.6%
17. COC(=O)c1cc2sc(Cl)cc2n1CC(=O)Nc1cccc(SC)c1  -10.9%
18. Cc1c(C(=O)N/N=C/c2cccnc2)sc(=S)n1C  -9.11%
19. O=C(NCCc1ccc(Cl)cc1)C1(c2ccccc2)CC1  -7.62%
20. CCC1CCCCN1C(=O)CCNS(=O)(=O)c1ccc2c(c1)oc(=O)n2C (centres unmarked)  -6.82%
21. CC1=C(C#N)C(C)C2=C(CC(C)(C)CC2=O)N1 (centres unmarked)  -6.59%
22. CCOc1ccc(/C=C(\C#N)C(=O)Nc2cccnc2)cc1  -6.49%
23. O=C(Nc1ccccc1)N1CCCC(CNS(=O)(=O)Cc2ccccc2)C1 (centres unmarked)  -6.25%
24. COc1ccccc1OCCNC(=O)c1cc(=O)[nH]c2ccccc12  -4.62%
25. Cc1cc(C)c(S(=O)(=O)c2ccccc2)c(Cl)n1  -3.45%
26. CC12CN(NC(=O)c3ccccc3F)C3(C#N)CC1CCC23C (centres unmarked)  -1.89%
27. CCCCN1CC[C@H]2C=CC[C@@H](C(=O)N3CCN(c4ccccc4)CC3)[C@H]2C1=O  -1.87%
28. O=C(Nc1ccc(S(=O)(=O)N2CCOCC2)cc1)C1CCCCC1  -1.38%
29. COc1ccc(-c2ccnc(SCC(=O)N3CCOCC3)n2)cc1  0.946%
30. COc1cc2c(cc1NC(=O)c1cccnc1)oc1ccccc12  0.994%
31. CC(C)(C)C(=O)Cn1ncc(N2CCCC2)c(Br)c1=O  1.13%
32. COc1ccc(C(=O)O/N=C(\C)c2ccccc2)cc1  1.79%
33. Cc1ccc(C(=O)CCNc2ccc(F)c(Cl)c2)o1  2.21%
34. O=S(=O)(Nc1ccc(S(=O)(=O)N2CCCC2)cc1)c1ccccc1Br  3.27%
35. Cc1ccc(CCNC(=O)C2CCCN(S(=O)(=O)c3c(C)noc3C)C2)cc1 (centres unmarked)  3.8%
36. CC(Cc1ccccc1)NC(=O)C1CCCNC1=O (centres unmarked)  4.99%
37. CC1CC1C(=O)Nc1nc(-c2cccs2)c(-c2cccs2)s1 (centres unmarked)  6.66%
38. COc1ccc(-c2cc(C(F)(F)F)c(C#N)c(SCC(=O)Nc3ccccc3C#N)n2)cc1  6.76%
39. O=C(Cn1cnc2c(cnn2-c2ccc(F)cc2)c1=O)OCc1ccccc1  6.95%
40. Cc1nn(C)c(Cl)c1CN1CCC(CO)(CC2CCCCO2)CC1 (centres unmarked)  8.45%
41. Cc1cc(Br)ccc1NC(=O)c1cnc(N2CCN(c3ccccn3)CC2)c2ccccc12  10%
42. COc1ccc(C)cc1NC(=O)c1ccc2c(SCC(=O)O)c3c(nc2c1)CCCC3  10.9%
43. CC(=O)N/N=C/c1c(C)[nH]n(-c2ccccc2)c1=O  11.2%
44. CCn1cc(C(=O)N(C)c2ccc(OC)cc2)c2cc(OC)c(OC)cc2c1=O  11.5%
45. Cc1ccc(NC(=O)COC(=O)c2ccnn2C)cc1  12.6%
46. NC(=O)c1cc(S(=O)(=O)NCCc2ccc(Cl)cc2)cs1  13.9%
47. O=C(NCc1ccccc1)c1onc(CS(=O)(=O)c2ccc(Cl)cc2)c1C(=O)NCc1ccccc1  14.4%
48. NC(=O)c1nnsc1-c1ccc(-c2snnc2C(N)=O)cc1  14.6%
49. COc1ccc(/C=C/C(=O)NC(=S)N2CCN(c3ccccc3OC)CC2)cc1  15.9%
50. Cc1nc(=O)c(-c2ccccc2)c(C)n1-c1cccc(/C=C/C(=O)O)c1  16%
51. O=C(Nc1nnc(SCc2c(Cl)cccc2Cl)s1)c1cccc([N+](=O)[O-])c1  16.4%
52. COc1ccc(C(=O)Nc2nc3ccccc3[nH]2)cc1  16.4%
53. Cc1ccc(NC(=O)COC(=O)C2(c3ccc(Cl)cc3)CCCC2)cc1  17.4%
54. Nc1nc(/C=C/c2ccc(F)cc2)nc(-c2ccccc2O)n1  17.8%
55. CCCCC(=O)Nc1cccc(C(C)O)c1 (centres unmarked)  19.8%
56. Cc1cccc(S(=O)(=O)Nc2ccc(-c3nc4ccc(C)cc4s3)cc2)c1  26.2%
